In the RNAGym collection of RNA variant scans (doi:10.1093/nar/gkz1192) one finds self-cleavage data, which are given here for 83 variants.

The source gives no read counts; variants with many changes may rest on few reads.

The chains are these.
B1: CPEB3 Ribozyme (parent)
chain: UAACAGGGGGCCACAGCAGAAGCGUUCACGUCGCAGCCCCUGUCAGAUUCUGGUGAAUCUGCGAAUUCUGCUGUAUAUCUC

In this series the parent is B1. Nature of the series: self-cleavage, relative activity (ratio to wild type); higher = more cleavage; in vitro, sequencing. The method, boiled down:
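Libraries of CPEB3 self-cleaving ribozyme mutants came from rounds of error-prone PCR and carried barcodes, which DNA sequencing matched to variants. In vitro transcription used T7 RNA polymerase at 37°C for 5 hours, with a further 15 min in DNase I before EDTA stopped the reaction; the ribozymes cleaved during both steps. The RNA was reverse transcribed with template switching and sequenced on Illumina. Relative activity is the cleaved/total read fraction of a variant divided by that of the unmutated ribozyme, averaged over three batches with at least 5 reads.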
For C14U A57G U80C, the self-cleavage was 1.23.
Then C14A U25G U43A, with 0.15.
Then C14U A20U U43C A64G U67C, with 0.07; and C14U A15U C32U U54A U67C, with 0.13.
For the variant A13U U67C U69A, the self-cleavage was 0.2.
In the case of C14U G19C U51A U78A U80C, the self-cleavage turned out to be 0.12.
For C14U A28C C32G U54C, the self-cleavage was determined as 0.03.
For C14U A18U A20G U26C G55A A75G the value was 0.21; for C14U A15G U60C, 0.41; for C14U A35G A65U, 1.14.
Then C14U A15G U66G, with 0.51; and C14U A18G U25A U26C, with 0.07; and C14U A20U A35G U49C A56G U69C, with 0.18.
In the case of C14U U31C A64U, the self-cleavage is 0.25.
Then A13U U67A C71G U72C, with 0.27; and C14G C17G A35G U41C, with 0.69.
Then C14A U51C U58C U66C U72G, with 0.16.
For C14U A28G C39A U41C U49C U58A U67C the value was 0.14; for C14U C27A U67C, 0.1.
C14G A21G G33A A35U U72G: the self-cleavage turned out to be 0.12.
Regarding C14A A20U U26A U31C U41A A56U U60A, the self-cleavage was found to be 0.04.
As for C14A U31C A65G, the self-cleavage came out at 0.29.
C14G U25C A64G: the self-cleavage came out at 0.36.
For C14U C39A U41C U58A U74C the value was 0.15.
Consider C14U C40U C44U U78C, for which the self-cleavage is 0.06.
Then C14G A20G A47G A57G U60C A64U, with 0.03; and A13U U74C U80C, with 1.27.
Then C14U A45G G46A U67C U69C, with 0.16.
For A13U U72A U80C the value was 0.93.
Consider C14G A21U U51A, for which the self-cleavage came out at 0.31.
Turning to C14U C17U U31C A35U, the self-cleavage is 0.09.
C14U U25C U31A G33U U43G G46U U67C: the self-cleavage was found to be 0.07.
On to C14A U43C U69C U74C, for which the self-cleavage stood at 0.22.
Then C14A U69C U74C, with 0.65; and C14A A28G C29U A45U G73A, with 0.39.
For the variant C14U G33A A57G, the self-cleavage was 0.35.
C14A U25C U51A A65G U80C: the self-cleavage stood at 0.11.
For C14A U49C A57U the value was 0.34; for C14U A64U A65U C68A, 0.23.
Then C14G G33A U43A U60C G63U, with 0.12; and C14U A18G U54A A56U, with 0.28.
For C14U A75G U80C the value was 1.23; for C14U A15U U43C U51C U74C, 0.67; for C14U U31A A56U A64G, 0.28.
As for C14A U43C A45U A64G U66C U72C, the self-cleavage came to 0.13.
Then C14U A18G U60C, with 0.3.
For the variant C14A A18U C62G U66C U67C, the self-cleavage was 0.07.
As for C14U U31C U43C G70A, the self-cleavage was found to be 0.19.
For C14G U25C U26C U60C U67A the value was 0.16; for C14A U43C U49C G53A A56G U66C U69C, 0.09.
For C14U A45U A56G U69C the value was 0.11.
Regarding C14U A18C U41C G55A U69C, the self-cleavage was determined as 0.12.
C14U C34U U48C U54C A57G G61A: the self-cleavage was 0.23.
Turning to C14G A20C A65G U76C, the self-cleavage is 0.06.
For C14U A20U A47G A56G the value was 0.49; for A13U U60C U67C G73A, 0.31; for C14A U25C U48C A57G U80A, 0.1.
As to C14U A21U C32U G55U A77U, the self-cleavage is 0.05.
Turning to C14A A35U U41G A77G, the self-cleavage worked out at 0.12.
On to C14U A18U C79A, for which the self-cleavage is 0.71.
For C14A A18U A21G U25C U74C U80A the value was 0.05.
For C14U A18G U31C A64G the value was 0.12.
With C14U C29U U41C U54C A64G, the self-cleavage turned out to be 0.26.
For C14U A20U G22C U54G, the self-cleavage turned out to be 0.09.
Regarding C14G U43C A64U U72C U78C, the self-cleavage stood at 0.08.
In the case of C14U U26C U48C A56G U76G A77G, the self-cleavage came to 0.19.
As for C14G A56C U78C, the self-cleavage was determined as 0.83.
Then C14U A20G A35G, with 1.15.
Then C14U A57G U72C, with 1.16; and C14U U25C A65G A75U, with 0.07.
Turning to C14U A20G A28G U43A U49C U67A, the self-cleavage came out at 0.04.
For the variant C14U A15U U43C U74C, the self-cleavage stood at 0.58.
In the case of C14U A20G U41A U72A, the self-cleavage was 0.16.
Then C14A A21G U80C, with 0.95.
In the case of C14U U25C A28U C32A U48A, the self-cleavage amounted to 0.41.
Then C14A C23U A47U U49A U54C A64U, with 0.09.
Then C14G U51A A57U A65U, with 0.08; and A13U U58C U60A U72C, with 0.2; and C14U A35U U41C U58A, with 0.18.
Consider C14A A57G A64G, for which the self-cleavage stood at 1.03.
For C14A A15G U51G U60C the value was 0.22; for A13U U58A U74C, 0.72; for C14A A35U U67A G73A, 0.29.
